Assay results reported in the supplement of paper PMC3334620.
The full ranking holds about 33,000 sequences; the median of “E-score (-0.5 to 0.5)” is about -0.016, and the highest 2% start at about 0.32. This is one part of the list.

Target: T1, Stp1 (UniProt B3LFK1)
T1 sequence: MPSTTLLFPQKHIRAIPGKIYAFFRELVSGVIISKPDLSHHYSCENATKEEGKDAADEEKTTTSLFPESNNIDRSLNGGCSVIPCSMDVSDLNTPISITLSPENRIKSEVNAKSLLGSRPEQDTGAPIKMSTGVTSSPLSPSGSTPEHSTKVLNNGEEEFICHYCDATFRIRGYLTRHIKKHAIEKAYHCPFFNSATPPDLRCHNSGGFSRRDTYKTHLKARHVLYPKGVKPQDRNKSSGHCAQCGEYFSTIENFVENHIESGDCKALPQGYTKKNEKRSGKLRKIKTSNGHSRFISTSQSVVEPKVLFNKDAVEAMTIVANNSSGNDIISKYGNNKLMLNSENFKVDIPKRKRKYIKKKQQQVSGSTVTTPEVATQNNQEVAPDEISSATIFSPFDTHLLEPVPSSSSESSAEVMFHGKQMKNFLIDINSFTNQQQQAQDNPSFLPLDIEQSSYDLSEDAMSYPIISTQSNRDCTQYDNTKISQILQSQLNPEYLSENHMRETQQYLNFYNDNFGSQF
Assay: PBM E-score (8-mer binding enrichment) (E-score (-0.5 to 0.5)); higher = stronger / more preferred TF binding; most listed sequences are background and not binding sites
Settings: protein concentration: 200 nM; construct: GST-full length
Method in brief: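 Detection of bound protein used fluorescent anti-GST, with scans normalised by masliner. The proteins were GST-tagged yeast transcription factors applied at about 100-200 nM to universal all-10-mer Agilent arrays made double-stranded by primer extension. Each ungapped eight-base word, pooled with its reverse complement, was scored with an E-score from the Universal PBM Analysis Suite.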

Sequence | PBM E-score
CCTCTCAA | -0.0851
GGTTCGAA | 0.128
CAGTGAGG | -0.0891
CCACCTTC | -0.304
CCCCGCAA | 0.111
CGGCTTCA | 0.368
CAGTGGAG | -0.0101
CGCTCGGC | 0.256
CCCGACCA | -0.143
AGGCGTAG | -0.0223
ATGTGCGC | -0.0938
CACTTGCG | 0.0239
ACAAGCAG | -0.216
AATAGAAA | 0.215
CACAAAGC | 0.23
ACGGACGT | 0.0122
GATGAGCA | 0.0484
CAATTGCA | 0.134
GTCCGCAC | 0.186
AACAGCGG | -0.0886
CGGGCTAG | -0.197
GGTGGAAC | -0.147
TCTCGAAA | 0.0824
ACGTTACA | 0.00085
CACTAGAG | 0.145

Sequence | PBM E-score
AGTCGCGG | -0.0754
TGCGGAAA | 0.0333
TAGATGCA | 0.106
GAGCCTCC | -0.21
ACTGTTCC | -0.131
ACATATCC | 0.133
AAGTTAAT | -0.081
ACGAGAAA | 0.0358
AAGTCCCG | -0.145
AAATTGTC | 0.138
AGCTTTGC | -0.187
AATGCTCG | -0.00397
CAAAAACA | 0.065
AACCCCGC | 0.0256
CAATAAAC | 0.13
AATTGTTA | 0.0498
ACCCAACT | -0.178
GATTGAAC | -0.0573
ACGATATC | 0.124
CCCTTCCA | -0.144
TACATGCA | 0.0485
AACGAATC | 0.202
ATTGGTAC | 0.0674
ACTTTGCA | 0.12
ACCGATCA | 0.039

Sequence | PBM E-score
CCAGCCTA | -0.35
TACTCAAA | 0.132
CCGTGTTC | 0.301
GGTGCTAC | -0.133
AGCGGACC | -0.215
CCGGATTA | -0.0118
GATTAGAC | 0.092
GCACATGC | 0.0145
CCACAGCG | 0.00802
GCCCGCCA | -0.186
GGCGTCAA | 0.31
ATTTTGTG | 0.158
ACCCGCAT | 0.1
CAGCTTAG | -0.256
ATTTGCAC | 0.0601
ATTGCTTA | 0.0358
ACCAGAAT | 0.0838
CTGTCGCA | 0.00593
ATAACGGC | 0.264
CATAAACG | 0.169
ACACATCG | -0.0488
GAGTAAGC | -0.0509
CGTACATC | -0.133
ATGAGGGG | -0.15
ATACTCAC | -0.0348

Sequence | PBM E-score
TTATATAA | 0.171
AGCGGCGG | 0.337
AGCATATA | -0.0358
GAGCATGC | -0.118
CACAATGG | 0.0592
CATCATTA | 0.0888
ACATGAAG | 0.0523
CGCCCCAG | -0.0372
CCTTGATC | 0.1
AACCGCAC | 0.0401
ACAGCGGA | -0.0656
AAGCGGGA | -0.095
CCAACTGC | 0.00294
CACCGAGA | -0.122
AGATACAA | 0.19
CTCTACAA | -0.00346
GGGTCAGA | -0.117
CTAATCAG | 0.0625
ACGGGGCT | -0.161
CAGCACAA | 0.142
GTTGATTA | 0.205
ACAAGAAC | 0.296
GAGGTAAC | 0.00014
CCGCCATC | -0.0267
TATCTACA | 0.189

Sequence | PBM E-score
CATCCTCC | -0.21
GTAGCTTA | 0.189
AATGGCTG | -0.0326
AGAACTTG | -0.0576
CGCGGCCA | 0.269
CTTCTATC | -0.0897
CCGGCCTA | -0.0984
AAGCCAGC | -0.137
CCTCGCCC | 0.0345
CCGCATTC | 0.105
ACCACTCA | -0.00545
ATGTGAGA | 0.0389
CGTGGCTC | -0.0716
CAACCCTA | -0.233
ATAGTCGC | -0.0218
ATCATTAC | 0.0917
ATTACTCG | 0.0247
ATACTGTG | -0.0187
AGCGTTAG | -0.0878
CCCTTAGG | -0.262
GTGAAAAA | 0.106
CTCCTCCA | -0.0755
AGAGGAAC | -0.0971
ATGAATAG | 0.0652
GTTATTTA | 0.227

Sequence | PBM E-score
AGCTTAGC | -0.0407
AAAGCTGA | -0.0561
AGGTTTCC | -0.232
CAATCGAC | -0.138
ACGAGAGT | -0.263
AAGCTAGC | -0.086
ATGCCGTG | 0.484
AGGCTGAC | -0.121
CCATAATC | 0.0285
CAGGCGTC | -0.00022
ACTGACAG | 0.0511
ATGAACAG | -0.0959
CGACCGAA | -0.0124
GAAGTTGA | -0.139
AAGGGTAT | -0.102
GGAATAGA | 0.0693
CAGAGAAG | 0.00015
GCCCGTAA | -0.0663
AGAGTGCG | -0.0608
AGATCTAA | -0.0294
ACTCACAA | -0.0902
AGGTGAAA | 0.0539
CACCGATC | -0.0313
CAATGCCC | 0.136
CCACTAGC | -0.11

Sequence | PBM E-score
AATTCATG | 0.198
CCACAAGG | 0.057
GCGGATCC | -0.0816
ACCACAAT | -0.0465
CCATAGAG | 0.0124
GAGACCTA | -0.155
GCCGTTCA | 0.441
GCGACGAC | -0.027
AGAGTGGA | -0.0108
GAACGCGC | 0.185
AAAGCAGC | 0.123
CTCATCGA | -0.0651
ACTACCCG | -0.175
CATGATTA | 0.171
AACGCCAC | 0.245
CAAAGACG | 0.0347
CTACTAAC | 0.0989
ATGGGGAC | -0.205
ACCTCTCA | -0.106
GCCGCCGC | 0.424
ATGCCGAC | 0.0658
GGCCAACA | -0.109
